Measurements taken from PubChem BioAssay AID1963848 (Molecular Pharmacology Branch, DTP, NCI, 2024).
Certain results were filed several times, with different values. The other results are left out here. The source may hold further records. Values that stand side by side are repeated measurements across runs, samples, wells, individuals or studies.

System: 379773-124-R-J2-PDC spheroid viability
Assay: Anticancer human tumor 379773-124-R-J2-PDC patient-derived endometrial carcinoma cell line growth inhibition [POLQ]
Settings: stronger effect = lower value, spheroids with HUVEC and MSC
Method: Multicellular complex tumor spheroid response to Polymerase (POL) inhibitors (novobiocin, ART-558, RP6685) in combination with a variety of drugs and investigational agents in selected tumor cell lines
The POL inhibitors (novobiocin, ART-558, and RP6685) were evaluated both individually and in combination with standard of care and investigational anticancer small molecules within a complex spheroid model of solid tumors. . Complex spheroids include a stromal component modeled by human endothelial cells (HUVEC) and fibroblasts modeled by human mesenchymal stem cells (MSCs). The concentration ranges selected for each drug and investigational agent were based upon clinically achievable concentrations if the clinical Cmax of the agent was known.
Compounds. […] If the clinical Cmax for an agent had not been determined, the highest concentration tested was 10 microM, except for SN-38, which was tested at a high concentration of 1 microM. […]
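Note: spheroids exposed to drugs for seven days before readout; percent viability relative to DMSO vehicle control taken as 100%.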

COC1C(OC(N)=O)C(O)C(Oc2ccc3c(O)c(NC(=O)c4ccc(O)c(CC=C(C)C)c4)c(=O)oc3c2C)OC1(C)C (configuration not stated) was tested, and the viability, T/C (compound alone 0.1 µM) was 85.8, 90.3, 85.7, 88.3, 77.4, 72.8, 86.3, 84.3, 78.4, 97.9, 99, 87.6, 93.5% and the viability, T/C (compound alone 1 µM) was 101, 86, 78, 96.6, 86.5, 92.9, 73.6, 86.8, 94.5, 87, 92.1, 104, 88.6%.
